The source of these data is article PMC9911399, “Two distinct binding modes provide the RNA-binding protein RbFox with extraordinary sequence specificity”.

Numbering of substitutions follows the chain as printed; changes in the protein carry UniProt numbers. Some of the results follow.

T1: RBFOX1 RRM (Homo sapiens, UniProt Q9NWB1 109-208)
T1 sequence: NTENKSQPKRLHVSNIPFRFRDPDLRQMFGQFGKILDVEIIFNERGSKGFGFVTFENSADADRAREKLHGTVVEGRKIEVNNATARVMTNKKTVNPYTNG

B1: UACCUAG (DNA:RNA)
RNA: GGGAGACCGGAAUUCAGAUUGUCCUACCUAGUUAAAUCCCGUCGUAGCCACCA
DNA 1: CAATCTGAATTCCGGTCTCCC
DNA 2: TGGTGGCTACGACGGGATT
B2: UACCAUG (DNA:RNA)
RNA: B1 RNA with U29A, A30U
DNA 1: CAATCTGAATTCCGGTCTCCC
DNA 2: TGGTGGCTACGACGGGATT
B3: UCACAGC (DNA:RNA)
RNA: B1 RNA with A26C, C27A, U29A, A30G, G31C
DNA 1: CAATCTGAATTCCGGTCTCCC
DNA 2: TGGTGGCTACGACGGGATT
B4: CAAGCAU (DNA:RNA)
RNA: B1 RNA with U25C, C27A, C28G, U29C, G31U
DNA 1: CAATCTGAATTCCGGTCTCCC
DNA 2: TGGTGGCTACGACGGGATT
B5: UAUGAAU (DNA:RNA)
RNA: B1 RNA with C27U, C28G, U29A, G31U
DNA 1: CAATCTGAATTCCGGTCTCCC
DNA 2: TGGTGGCTACGACGGGATT
B6: UUGCUGA (DNA:RNA)
RNA: B1 RNA with A26U, C27G, A30G, G31A
DNA 1: CAATCTGAATTCCGGTCTCCC
DNA 2: TGGTGGCTACGACGGGATT
B7: UCCGACC (DNA:RNA)
RNA: B1 RNA with A26C, C28G, U29A, A30C, G31C
DNA 1: CAATCTGAATTCCGGTCTCCC
DNA 2: TGGTGGCTACGACGGGATT
B8: CAAAACU (DNA:RNA)
RNA: B1 RNA with U25C, C27A, C28A, U29A, A30C, G31U
DNA 1: CAATCTGAATTCCGGTCTCCC
DNA 2: TGGTGGCTACGACGGGATT
B9: UCCUUGA (DNA:RNA)
RNA: B1 RNA with A26C, C28U, A30G, G31A
DNA 1: CAATCTGAATTCCGGTCTCCC
DNA 2: TGGTGGCTACGACGGGATT
B10: AUAAAAU (DNA:RNA)
RNA: B1 RNA with U25A, A26U, C27A, C28A, U29A, G31U
DNA 1: CAATCTGAATTCCGGTCTCCC
DNA 2: TGGTGGCTACGACGGGATT
B11: GUCGGUG (DNA:RNA)
RNA: B1 RNA with U25G, A26U, C28G, U29G, A30U
DNA 1: CAATCTGAATTCCGGTCTCCC
DNA 2: TGGTGGCTACGACGGGATT
B12: AUAAGGC (DNA:RNA)
RNA: GGGAGACCGGAAUUCAGAUUGUCCAUAAGGCUUAAAUCCCGUCGUAGCCACCA
DNA 1: CAATCTGAATTCCGGTCTCCC
DNA 2: TGGTGGCTACGACGGGATT
B13: CGGAUUC (DNA:RNA)
RNA: B12 RNA with A25C, U26G, A27G, G29U, G30U
DNA 1: CAATCTGAATTCCGGTCTCCC
DNA 2: TGGTGGCTACGACGGGATT
B14: GCACCUG (DNA:RNA)
RNA: B1 RNA with U25G, A26C, C27A, U29C, A30U
DNA 1: CAATCTGAATTCCGGTCTCCC
DNA 2: TGGTGGCTACGACGGGATT
B15: CUUAACU (DNA:RNA)
RNA: B12 RNA with A25C, A27U, G29A, G30C, C31U
DNA 1: CAATCTGAATTCCGGTCTCCC
DNA 2: TGGTGGCTACGACGGGATT
B16: CCUGAAA (DNA:RNA)
RNA: B1 RNA with U25C, A26C, C27U, C28G, U29A, G31A
DNA 1: CAATCTGAATTCCGGTCTCCC
DNA 2: TGGTGGCTACGACGGGATT
B17: AGCACAU (DNA:RNA)
RNA: B12 RNA with U26G, A27C, G29C, G30A, C31U
DNA 1: CAATCTGAATTCCGGTCTCCC
DNA 2: TGGTGGCTACGACGGGATT
B18: GCACUUC (DNA:RNA)
RNA: B12 RNA with A25G, U26C, A28C, G29U, G30U
DNA 1: CAATCTGAATTCCGGTCTCCC
DNA 2: TGGTGGCTACGACGGGATT
B19: UGACUAA (DNA:RNA)
RNA: B1 RNA with A26G, C27A, G31A
DNA 1: CAATCTGAATTCCGGTCTCCC
DNA 2: TGGTGGCTACGACGGGATT
B20: AAUUCUC (DNA:RNA)
RNA: B12 RNA with U26A, A27U, A28U, G29C, G30U
DNA 1: CAATCTGAATTCCGGTCTCCC
DNA 2: TGGTGGCTACGACGGGATT

This experiment concerns the target T1, RBFOX1 RRM. Put plainly: EMSA; HiTS-Eq, 1 nM pool, 10 min; buffer printed only for the single-RNA assays: 10 mM Tris pH 7.5, 150 mM NaCl, 3.4 mM EDTA, 0.001% NP-40, 30 C. To be noted: tags: His6 N-terminal (pET28a); label: 5' 32P. In a few lines:
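These values rest on relative association constants, computed from read-count changes of each RNA species versus the control reaction and normalised to the cognate motif. Reads came from free RNA recovered by 8% native PAGE after purified RbFox RRM (wild type or mutant) at increasing concentrations was equilibrated for 10 min in 50 µL with 1 nM of a 5′-radiolabelled pool with 7 randomized nucleotides and DNA-annealed flanks.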
Regarding B1, the binding signal was 0.00611 KA relative to UGCAUGU.
Take B2: the binding signal was 0.00789 KA relative to UGCAUGU.
For B3, the binding signal is 0.00287 KA relative to UGCAUGU.
The value for B4 was 0.00436 KA relative to UGCAUGU; that for B5 was 0.0106 KA relative to UGCAUGU; that for B6 was 0.0257 KA relative to UGCAUGU.
The value for B7 was 0.00442 KA relative to UGCAUGU.
Take B8: the binding signal was 0.000609 KA relative to UGCAUGU.
For the molecule B9, the binding signal was 0.0113 KA relative to UGCAUGU.
The value for B10 was 0.000429 KA relative to UGCAUGU; that for B11 was 0.0254 KA relative to UGCAUGU; that for B12 was 0.00556 KA relative to UGCAUGU.
The value for B13 was 0.0273 KA relative to UGCAUGU; that for B14 was 0.0149 KA relative to UGCAUGU; that for B15 was 0.0019 KA relative to UGCAUGU.
B16: the binding signal was 0.00997 KA relative to UGCAUGU.
The same measure for B17: 0.00794 KA relative to UGCAUGU; for B18: 0.00902 KA relative to UGCAUGU.
As for B19, the binding signal was 0.00904 KA relative to UGCAUGU.
The value for B20 was 0.00325 KA relative to UGCAUGU.
